Data on 46 compounds can be found in article PMC4336329 (PLoS ONE, 2015).

In all, about 310,000 compounds went through this assay and about 2,200 (0.71%) showed an effect of 50% or more. Effects have a minus sign here. This is one part of the list.

The target of this assay is human ether-à-go-go-related gene (hERG) potassium channel (human, UniProt Q12809). As to the kind of experiment: primary screen, population patch clamp on CHO cells stably expressing hERG.
Sequence of human ether-à-go-go-related gene (hERG) potassium channel (Q12809 whole entry, looked up): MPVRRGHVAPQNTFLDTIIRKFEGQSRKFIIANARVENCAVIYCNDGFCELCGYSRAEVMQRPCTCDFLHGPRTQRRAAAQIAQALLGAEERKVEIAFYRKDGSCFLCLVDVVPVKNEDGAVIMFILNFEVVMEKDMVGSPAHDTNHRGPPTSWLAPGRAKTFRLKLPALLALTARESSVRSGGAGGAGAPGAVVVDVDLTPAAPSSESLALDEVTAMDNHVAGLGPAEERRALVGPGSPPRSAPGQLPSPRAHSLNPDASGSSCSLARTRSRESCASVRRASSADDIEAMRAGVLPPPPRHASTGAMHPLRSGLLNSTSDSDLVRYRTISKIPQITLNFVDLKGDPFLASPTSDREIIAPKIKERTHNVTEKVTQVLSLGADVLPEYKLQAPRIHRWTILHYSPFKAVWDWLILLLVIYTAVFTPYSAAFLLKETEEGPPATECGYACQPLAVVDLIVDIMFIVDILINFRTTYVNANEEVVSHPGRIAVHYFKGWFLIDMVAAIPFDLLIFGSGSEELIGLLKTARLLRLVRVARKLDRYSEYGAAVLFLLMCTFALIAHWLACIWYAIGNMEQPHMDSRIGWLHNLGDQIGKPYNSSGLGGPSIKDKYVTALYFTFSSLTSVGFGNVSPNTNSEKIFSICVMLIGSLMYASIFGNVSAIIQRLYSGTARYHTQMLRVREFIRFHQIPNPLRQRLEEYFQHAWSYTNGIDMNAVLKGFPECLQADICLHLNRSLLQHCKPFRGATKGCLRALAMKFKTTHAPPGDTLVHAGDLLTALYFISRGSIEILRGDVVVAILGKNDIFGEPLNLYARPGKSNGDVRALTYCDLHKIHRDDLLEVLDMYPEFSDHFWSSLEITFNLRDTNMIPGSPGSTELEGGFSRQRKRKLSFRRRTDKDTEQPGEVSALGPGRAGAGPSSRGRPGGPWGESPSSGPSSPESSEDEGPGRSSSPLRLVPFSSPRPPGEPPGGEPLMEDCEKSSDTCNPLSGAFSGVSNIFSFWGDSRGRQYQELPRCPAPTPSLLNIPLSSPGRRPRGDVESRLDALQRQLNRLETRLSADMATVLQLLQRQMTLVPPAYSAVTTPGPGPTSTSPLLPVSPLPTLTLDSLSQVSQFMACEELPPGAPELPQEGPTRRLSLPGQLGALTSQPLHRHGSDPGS
On to `O=C(OC1CCOC1=O)c1ccc(S(=O)(=O)N2CCCCCC2)cc1` (stereo not shown), for which the “hERG current change (%, negative = inhibition) at 1uM” value was 10.7%. As to `CC(=O)Nc1nc2ccccc2n1CCOc1ccccc1Cl`, the “hERG current change (%, negative = inhibition) at 1uM” value is recorded as 16.8%. For the compound `CC(=O)Nc1cccc(NC(=O)CSc2nc(=O)n3cccc(C)c3n2)c1`, the “hERG current change (%, negative = inhibition) at 1uM” value amounted to 22.2%. For the compound `Cc1cc(C(=O)Nc2nc3c(s2)CCCC3)cs1`, the “hERG current change (%, negative = inhibition) at 1uM” value came out at 7.91%. Regarding `Cn1cnc(S(=O)(=O)N2CCN(C(c3ccc(F)cc3)c3ccc(F)cc3)CC2)c1`, the “hERG current change (%, negative = inhibition) at 1uM” value is 10.4%. With `Cc1ccc(C2(CCNCc3ccc(N(C)C)cc3)CCOC(C(C)C)C2)cc1` (stereo not shown) the figure was -20.9%; with `COc1ccc(C(C#N)(CC(=O)O)c2cnccn2)cc1OC` (stereo not shown), 7.11%. On to `Cn1cnnc1SCC(=O)c1ccc2c(c1)OCO2`, for which the “hERG current change (%, negative = inhibition) at 1uM” value was -9.66%.

For `CCc1ccc(OCc2nnc(SCCN3CCOCC3)n2C)cc1.O=C(O)C(=O)O`, the “hERG current change (%, negative = inhibition) at 1uM” value stood at 9.79%. On to `N#Cc1c(/N=C/c2c(O)n(Cc3ccco3)c(=O)[nH]c2=O)sc2c1CCCC2`, for which the “hERG current change (%, negative = inhibition) at 1uM” value was -0.139%. With `Brc1cccc(-c2cnc3n2CCCCC3)c1.Cl`, the “hERG current change (%, negative = inhibition) at 1uM” value is on record as -16%. As for `Cn1c(=O)oc2cc(S(=O)(=O)NCc3cccnc3)ccc21`, the “hERG current change (%, negative = inhibition) at 1uM” value is 8.9%.

For the compound `Cc1csc(NC(=O)[C@@H](NC(=O)c2ccccc2)C(C)C)n1`, the “hERG current change (%, negative = inhibition) at 1uM” value worked out at 9.25%. `CC1(C)CC(=O)C(C(c2ccccc2F)C2C(=O)CC(C)(C)CC2=O)C(=O)C1`: the “hERG current change (%, negative = inhibition) at 1uM” value stood at 11.5%. `OCc1nc2ccc(Cl)cc2[nH]1`: the “hERG current change (%, negative = inhibition) at 1uM” value is recorded as 4.24%. As to `CCN(CC)c1ccc(NC(=O)Cn2ncc3c(C)n(Cc4ccccc4F)c(C)c3c2=O)c(C)c1`, the “hERG current change (%, negative = inhibition) at 1uM” value worked out at 9.67%. Turning to `O=C(NC1CCCC1)C(c1ccccc1)N(Cc1ccccc1)C(=O)c1csnn1` (stereo not shown), the “hERG current change (%, negative = inhibition) at 1uM” value amounted to 5.13%. With `Cc1cc(C)c2[nH]c(=S)cc(C)c2c1` the figure was 17.8%; with `CN1CCN(C(=S)NC(=O)/C=C/c2ccccc2)CC1`, -16.5%.

Regarding `CCNC(=O)COC(=O)CNC(=O)c1cc(Cl)cc([N+](=O)[O-])c1`, the “hERG current change (%, negative = inhibition) at 1uM” value came out at 8.53%. As to `CN(CC(=O)NCc1ccncc1)S(=O)(=O)c1ccc(Cl)cc1`, the “hERG current change (%, negative = inhibition) at 1uM” value was -13.5%.

In the case of `O=C(NCc1ccccc1)Nc1cccc2ccccc12`, the “hERG current change (%, negative = inhibition) at 1uM” value was found to be 12.9%. Consider `N#Cc1ccc(NC(=O)CNc2cc(S(=O)(=O)N3CCOCC3)ccc2NCC2CCCO2)cc1` (stereo not shown), for which the “hERG current change (%, negative = inhibition) at 1uM” value came to 6.86%. As for `O=C(Nc1ccc2c(c1)CCC2)c1cc(=O)[nH]c2ccccc12`, the “hERG current change (%, negative = inhibition) at 1uM” value is reported as 7.36%. Regarding `O=C(COC(=O)c1cc(Br)ccc1O)Nc1ccc2c(c1)OCO2`, the “hERG current change (%, negative = inhibition) at 1uM” value worked out at 8.89%. For `CCOC(=O)c1c(C)[nH]c(C(=O)N2CCCC(C(=O)c3ccccc3OC)C2)c1C` (stereo not shown), the “hERG current change (%, negative = inhibition) at 1uM” value turned out to be 7.08%. With `Cc1nc(-c2cccc(NC(=O)C(C)Oc3ccccc3)c2)cs1` (stereo not shown), the “hERG current change (%, negative = inhibition) at 1uM” value came out at 17.8%. Consider `CC(=O)N1CC=CC1(CC(C)C)C(=O)NCc1cc(F)cc(C(F)(F)F)c1` (stereo not shown), for which the “hERG current change (%, negative = inhibition) at 1uM” value turned out to be 11.4%. As to `CCCCNC(=O)Nc1ncn[nH]1`, the “hERG current change (%, negative = inhibition) at 1uM” value came out at 10.3%.

Regarding `NC(=NC(=O)c1ccccc1)C1=C(O)CCC1=O`, the “hERG current change (%, negative = inhibition) at 1uM” value is 12.8%. For `CCn1c(-c2cccc(Br)c2)n[nH]c1=S`, the “hERG current change (%, negative = inhibition) at 1uM” value worked out at 14.6%.

For the compound `O=C1c2ccccc2S(=O)(=O)c2cc(C(=O)N3CCN(C(=O)c4ccccc4)CC3)ccc21`, the “hERG current change (%, negative = inhibition) at 1uM” value was 3.33%.

On to `CC(=O)NC(=S)Nc1ccccc1C(=O)NC1CCCCC1`, for which the “hERG current change (%, negative = inhibition) at 1uM” value was determined as 4.03%. Regarding `N#CC1=C(S)N(c2ccccc2)C(c2ccc(-c3ccc(Cl)c(Cl)c3)o2)NC1=O` (stereo not shown), the “hERG current change (%, negative = inhibition) at 1uM” value is reported as -2.47%. Regarding `Cc1ccc(NC(=O)CN(C)S(=O)(=O)c2cnc[nH]2)c(C)c1`, the “hERG current change (%, negative = inhibition) at 1uM” value is recorded as 15.6%. With `Clc1ccc(CSc2nnc(/C=C/c3ccccc3)o2)cc1` the figure was -0.973%.

In the case of `Cc1cccc(N2CCN(C(=O)COc3ccc4c(C)cc(=O)oc4c3C)CC2)c1C`, the “hERG current change (%, negative = inhibition) at 1uM” value is given as 15.2%. Take `O=C(NNC(=O)c1cccs1)c1ccc(Cl)c(Cl)c1`: the “hERG current change (%, negative = inhibition) at 1uM” value was determined as 13.1%. Take `Cc1ccc(C2CC(c3cccs3)=NN2C(=O)CSC2=NCCS2)cc1` (stereo not shown): the “hERG current change (%, negative = inhibition) at 1uM” value worked out at 2.27%. As for `CSc1c(SCc2ccccc2)cnn(-c2ccccc2)c1=O`, the “hERG current change (%, negative = inhibition) at 1uM” value came to 10.8%. With `COc1ccc(OC)c(C(=O)CSc2nnc(-c3cccnc3)n2C)c1` the figure was 6.98%; with `CC(C)=CCCC(C)CN1CCC(n2nccc2NC(=O)c2ccccc2)CC1` (stereo not shown), -52.2%; with `Cn1c(NC2CCCCC2)c(N=O)c(=O)n(C)c1=O`, 12.8%. Regarding `Cc1cc(Br)ccc1NC(=O)C1CCCO1` (stereo not shown), the “hERG current change (%, negative = inhibition) at 1uM” value turned out to be 8.71%. Take `Cc1nnc(-c2ccccc2)c(=O)n1/N=C/c1c(O)ccc2ccccc12`: the “hERG current change (%, negative = inhibition) at 1uM” value was determined as 8.19%. Turning to `Cc1cc(NC(=O)Cn2ccsc2=N)c([N+](=O)[O-])cc1C.Cl`, the “hERG current change (%, negative = inhibition) at 1uM” value is listed as 3.03%.
